The source gives no read counts; variants with many changes may rest on few reads.
B1: LINE1-full (parent)
chain: UACGUAGGUGGUUUUCCCCUGAUAGUGCUAAGGGGGCCUGGAAGUUUGGACUGGGCAGAGCUCAACACAGCGUGGCAAAGUGGCUGUGGCUAGACUGCCUCUCUGGAUUCCUCGUCACUCAGCAGGGCAUCUCUGAGAGAAAUGCC

Variants of: B1
Test: self-cleavage, relative activity (ratio to wild type); higher = more cleavage; in vitro, sequencing; the parent is a self-cleaving ribozyme

Variant	self-cleavage
U14C A121G G139U C146U	1.87
U45C U112C A141C	1.04
U9C A31G U87G	0.71
U12C G33A A67U U73C A124G	0
U20A G49U U62C	0.01
U13A C37G A64U U104C A124U G139A	0.22
U13A U102A A141G	0.54
U46C G60A A92G U96A	0.04
C113U U132C A138U	2.24
U12C U14C A129G	0.81
G21A G32U C37U A50G U109A U130C	0.52
U20A U85C U115C G137A	0.27
U47C U73A G88A	0.06
U14C G60A U85C A107G	0
A67U U85C A94G U115A A141G	0
U62C A64U A67G U102C C103A A141G	0.14
A65U U87G U143C	0
U62A A79G A124U	0.12
U104C U108C A141G	1.15
U85C C98A A138G	0.09
U15C G27A G126A U130A A136G	1.32
U15C G35A A65G U81C U134A	0.06
U52C U104C A136U	1.75
C16U U85C U102C U104A U119C	0

Variant	self-cleavage
G114U A124G A129C	1.7
A6U U13C A43U	1.19
A2G U47A U104C	0.66
A22C U52A A64G	0.17
G44A A57G U132A	1.73
U20A G34A U143C	2.02
A2U U9A G72U A78G	1.23
U12C A67U U134A	0.02
G44A U45C U100C A107G A124U	1.8
U26C C76U U81C A124U	1.68
U13C U26A A138G	2.65
A57U A67U U96C A138G	0.02
U23C U26A C120U	1.65
U5G A69G U91A A107G C111U	0
U26C A43G A136U	1.53
G8C U46C C68U	0.37
U23C A59G C131U	0.06
U1C A43G U115A U143A	0.62
A31G A65U U85C	0
G53A A59G A65G U108C A124G	0.2
U12A U85C U108C	0.85
U1A U13C A67G U81A U112C	1.06
U104C A121U A140G	2.43
U20C U52G A78G	1.15

Variant	self-cleavage
U20A A65U U85C	0.09
U13C U46C A50G U104C	1.31
U9C G41U G72C A140G	1.15
A6G C19U G49U U52C	0.13
A30G A42G A77G A121U	0.71
G11C U47C U104C A140G	1.21
U23C A30U C95U A107G C128U	0.25
A2G U13C G80A	0.97
A117U U134A A142G	0.69
U14C U100C U119A	1.4
U96C A138G A141G	0
U102C U109C G114A U130C A141G	2.59
U46A A79G G88A U109C A140G A141G	0.05
A50U G106A A142G	1.35
U9C A42U A138G A140G	1.86
A64G A77G U100A	0.24
A30G U109C G135A	1.23
A42G U45A G82A	1.5
U14C A92G U115C	0
U39G U108C A140G	1.53
U52C U112C U134C	0.92
G35U U87C A138G	0.12
C37A A78G U96C A141U	0
A50U U62A A94G	0

Variant	self-cleavage
U14C A22G U47G A142G	1.25
U13C A22U U29C U87A U109C U112C A136G A140G	0
A2G A43G U73C G89A	0.31
C17U A24G G32A G35A U96C U134C A138U	0.05
U20C A59U U100G U112A U143A	1.19
U20C A24G A43G A65U U108C	0
A31G G33A U39A A77C A79U U104C U119C A141G	0
G11A U13C A22U A50G A140G U143C	0.54
A50G U87A A142G	0
A6U U14C A65U	0.57
U15A U29G U73G	1.31
U14C C71U U112C	0.8
U29A U112C A124G	1.08
U5C A6G U14A C111A U132C	1.18
U14C A142G C145A	2.26
A22U A67U U81A G114A	0.06
A43G U46A C63U U91A	0.12
U39A A77G G89U	0.16
U47A A64C C71G A138C	0.08
U62C C116A A140C	0.04
A77G C98G G106U	0.15
G60U A117U A138U	0.04
A64U U96C U108C U132C	0
A22G C98A C128U U132C	0.25

Variant	self-cleavage
A43G A79U A94G	0.66
A6G U47G A69G	0.35
A31U A65U A79U A117U	0.26
U20C U87A U108C	0.1
G54C A65G U119C	0
G36C U45C U81A C128U	1.86
A50G U102C U132A	0.5
U14C A42G C146U	1.04
U14C U47A A121G	1.08
U12A U20G A124U U132C	1.41
A22G U46C C71U C99U A140U C146A	0.65
A2G U13C U26C A30G U45C U62A C123A	0
A2G U15C G35A A64G U87C U130C	0
U1C U115C U134A	0.84
U1C A6G G34A A50G A77G	1.2
C17U U45C U85C A117G U119A	0.92
A24U C76U A141G	1.7
A77C U104C G105C A141U U143C	1.7
C84U U85C U96C	0
A31U G74A A117G U119C U130C	1.07
G54A C98U G135A A140G	0.36
U14C A50G A140G	1.04
U20C U26C G32A C84U	0.21
U9A A57G A140G	0.92

Variant	self-cleavage
U15A U20C A129G U143A	1.35
U5C U14C U47C G86A A140G	0.34
A42G U132G A138U	1.02
A43G A79G U81A	1.38
C19U C76U A124G	1.61
U13C G83A A94U A129G U130C	0.22
A6G U13C G32C U115C	0
U12C U14C A59G A92U A129G U132A	0.46
A2U U29C U39C U45C A138G	0.48
U26C A43G A57G A138G	0
U15C U45A A79G A138G	0.75
U12C U13C U20C	0.84
A69G U87A A94U	0.02
A64G U115C A124G	0.29
G72A U87C A124G	0.05
U9C U85A U119C A129U	0.39
U39A A117G A141G	1.82
U26A U119C A142G	0
U52A U102C A136U	1.18
A31U A42G G55U A57G U91A	0.05
A42G A65G A124G	0
A24G A78G A94G A124G U132A	0
U1A U20C A22G C61U A136U	0.2
A79G U85A U104A A138G	0

Variant	self-cleavage
U13C C16U A64U A79C C116U	0.34
A59G A64G A69G G126A	0.22
U5A U85A A94G C99U U112A	0
U15C C28U A138C	0.79
G74A U109C U115C A129G	1.3
U23A U62A U109A	0.12
C37U U46C A65G A77U	0.02
U26A U52A U102A	0.98
U73C U96C U102C	0
A2G U73A A94G	1.02
U47C U119C G122A A141G	1.63
A42G A50G U143A	0.92
U9C U14C U46C G114A	0.92
U23A U112A A142G	1.04
A64U U112C A140G	0.03
A94C U108C U134C A136U	0.32
U5C U20C U46A A138G	1.35
U9C G21A U39C U47C G88A U119A	0.07
U13C A42U A77C	1.01
U13A U52C A129G	1.45
U12C U14A A59G U104A	0.04
A50G A77U U91G	0.06
A31G U62C U81C	0.3
